# Among all 4,800 compounds or so, about 420 (8.8%) showed an effect of 50% or more. This is one part of the list.
# System: Plasmodium falciparum
# Assay: Confirmatory screen in NF54 nanoGlo assay, in single point, at 2uM, 72h
# Assay type: functional, Erythrocyte
# Conditions: timepoint 72 hour
row,SMILES,% Inhibition
1,Cn1c(=O)c2c(c(-c3ccccc3)cn2C)n(CC(=O)NCc2ccco2)c1=O,-9%
2,Cc1cc(NS(=O)(=O)c2ccc(Br)cc2)ccc1-c1ccc(C(=O)O)o1,-26%
3,O=C(NC(C1CC1)C1CC1)c1ccsc1,-4%
4,C[C@@H](CN1CCCCC1)NC(=O)Nc1nc(C(F)(F)F)cs1,-13%
5,O=C(CNc1ccccc1Nc1ccc(F)cc1F)N1CCNC1=O,4%
6,O=C(Nc1ccc2c(c1)C(=O)N1CCC[C@H]1C(O)=N2)c1c(F)cccc1F,-13%
7,Cc1ccc(C)n1-c1ccccc1CNC(=O)c1ccc(C(F)(F)F)cc1,-8%
8,CC(=O)N(C(C)=O)c1c(-c2ccccc2)nnn1-c1ccccc1,0%
9,CCOc1c(Br)cc(Cl)cc1NCC(=O)NC(=O)NC,-4%
10,CC(C)C(C(=O)O)N1Cc2c(cc(O)c3c2OC2(C3)C(C)CCC3C(C)(C)C(O)CCC32C)C1=O (centres undefined),1%
11,COC(=O)C1(NC(=O)c2scnc2C)CCCCC1,-7%
12,O=C(Nc1[nH]c(=O)ncc1F)c1coc(-c2ccccc2)n1,80%
13,CC(C)(C)NC(=O)CNc1nnc(C2CC2)s1,-11%
14,CC1CCCN(C2(N3CCCC(C)C3)C(=O)Nc3ccc(F)cc32)C1 (centres undefined),19%
15,Cc1ccn([C@@H](C)c2nnc(Nc3ccn(Cc4c(Cl)cccc4Cl)n3)s2)n1,7%
16,Cn1c(C(C)(C)C)nc2cc(NC3CCC4(CC3)OCCO4)ccc21,-8%
17,CCC(C)NCC(O)Cn1c(-c2ccccc2)c(-c2ccccc2)c2cc(C)ccc21 (centres undefined),92%
18,O=C(c1nnn(-c2ccccc2Cl)c1-c1cccnc1)N1CCC(Cc2ccccc2)CC1,-7%
19,COc1ccc([C@H]2[C@H](C(=O)NCc3ccc(C)o3)CCC(=O)N2C)cc1,-15%
20,O=C(NCc1cccc(C(F)(F)F)c1)c1csc(C(=O)NC2CCCC2)n1,-14%
21,CC(=O)N[C@@H]1CN(Cc2nccn2Cc2ccccc2)C[C@H]1c1nccn1C,15%
22,Cn1ncn(CC(=O)c2cccc(Cl)c2Cl)c1=O,-15%

row,SMILES,% Inhibition
1,O=C(CCc1ccccc1)N[C@@H](c1ccccc1)c1ccc2c3c(cccc13)CC2,-12%
2,Cc1nc(NC(=O)N2CCOCC2CC(O)c2cccs2)sc1C (centres undefined),2%
3,O=c1c2ccccc2ncn1S(=O)(=O)c1ccc(Cl)cc1,-1%
4,COc1ccccc1CN(C(=O)c1ccc(C)cc1)c1ccc(CC(=O)NCCN2CCCCC2)cc1,39%
5,O=C1O[C@H](N2CCc3ccccc3C2)c2ccccc21,1%
6,O=C(NC1CCCCC1)c1nn(-c2ccccc2)c(=O)c2ccccc12,-4%
7,Cc1cccc(N2CCN(S(=O)(=O)c3cc(-c4nnc(C)o4)co3)CC2)c1,-5%
8,Cc1nn(C)cc1-c1cc(C(F)(F)F)nc(N2CCOCC2)n1,-5%
9,Nc1ccc2c(N3CCC(C4OCCO4)CC3)ncnc2n1,-2%
10,COc1ccc2c(c1)OC13CCN(C)CC1C2C(C(=O)c1ccccc1OC)C(=O)N3 (centres undefined),57%
11,COc1cc(C(=O)Nc2nnc(-c3ccc(C)s3)[nH]2)on1,-4%
12,CC(C)(C)C1CCC(Nc2cccc(Cl)c2)(c2nnnn2[C@H](/C=C\c2ccc(Cl)cc2Cl)C(C)(C)C)CC1 (some centres undefined),-13%
13,Cc1c(N2C(=O)c3ccc(Cl)cc3C2=O)c(=O)n(-c2ccccc2)n1C,-8%
14,COCCNC(=O)c1ccc(-n2nc(-c3nnc(C)o3)c(C)c2-c2ccc(OC)cc2)cc1,46%
15,Cn1ncc(NC(=O)Cn2nc(C(F)F)c(Cl)c2C2CC2)c1C(=O)N1CCCCC1,-1%
16,CCN1CCN(c2cccc(NC(=O)c3ccc4[nH]c5ccccc5c(=O)c4c3)c2)CC1,93%
17,N#Cc1ccc(NCc2nccc(N)n2)nc1,1%
18,Cc1ccnc(N2CCN(S(=O)(=O)Cc3ccon3)CC2)c1,4%
19,O=C1c2ccccc2C(c2ccc(NC(=O)c3cccc4ccccc34)cc2)(c2ccc(NC(=O)c3cccc4ccccc34)cc2)c2ccccc21,83%
20,COc1ccc(NC(=O)CCC(=O)c2ccc3c(c2)OCCCO3)cc1,-11%
21,C[C@@H](CNC(=O)c1ccncc1F)c1nc2ccccc2s1,-1%
22,O=S(=O)(Cc1ccccc1)N1CCC(OCCOc2ccc(F)cc2)CC1,-2%

row,SMILES,% Inhibition
1,N#CC(c1nc2ccccc2s1)c1nc2ccccc2s1,14%
2,CCCNC(=O)c1cn2ccnc(-c3ccc(C)cc3)c2n1,-4%
3,O=C(Nc1ccc2c(c1)CNCC2)C1CC1c1ccc(F)c(F)c1 (centres undefined),4%
4,CC(C)N(CCS(C)(=O)=O)C(=O)NCc1ccco1,5%
5,COCc1cc2nn(CC(=O)Nc3ccc(F)cc3C)c(=O)n2c(-c2ccccc2)n1,-15%
6,O=C(NCc1cccc(F)c1)[C@H]1CCCN(c2nc3ccccc3n(Cc3ccccc3)c2=O)C1,5%
7,Cn1nc(C2CC2)nc1COc1cc(C(F)F)nc2ccc(Cl)cc12,-4%
8,COc1ccc(-c2noc([C@H](C)NC(=O)N3CCNC(=O)C3)n2)cc1OC,-1%
9,Cc1nnc(NS(=O)(=O)c2c(C)sc3ccccc23)s1,5%
10,Nc1c(Cl)cc(Cl)c(N)c1Cl,-11%
11,CCN1c2cc(C(=O)NCc3ccccc3)ccc2C(=O)N2CCCC[C@H]21,1%
12,CC(C)(C)c1cc(N)c2ccccc2n1,-8%
13,Cc1cc(C)n(S(=O)(=O)c2ccc3c(c2)OCCO3)n1,-3%
14,Cc1ccc(NC(=O)c2ccc3c(-c4ccccc4)onc3c2)cc1C,-17%
15,Fc1cccc(F)c1-n1c(COc2ccc(Cl)cc2)csc1=S,-7%
16,CC(CO)(CO)NC(=O)c1ccc(Br)cc1,2%
17,C[C@H](C(=O)NCCc1ccccc1)C1CCOCC1,-9%
18,COC(=O)[C@@H]1[C@@H](NC(=O)C2CCCC2)CCN1C(C)=O,-2%
19,Cc1ccc(Cn2c(=O)c(N3CCC[C@H](C(=O)NCCc4ccco4)C3)nc3ccccc32)cc1,-2%
20,O=C(COc1ccccc1)N1CC[C@H](c2nc(C3CCOCC3)no2)C1,-3%

# Source: ChEMBL document CHEMBL4888484, “Replenishing the malaria drug discovery pipeline: Screening and hit evaluation of the MMV Hit Generation Library 1 (HGL1) against asexual blood stage Plasmodium falciparum ,using a nano luciferase reporter read-out” (2022)
